The record followed here is the supplement of paper PMC7238544.

Structures can show the parent of a compound that is named as a salt. ± gives the standard deviation of the averaged measurements. The list shows a part of the results.

Common to all, as to conditions: priming compound concentration 100 µM
Assay [1] deals with hAMSC donor 1. The assay is described as follows: Hoechst total cell count ratio vs vehicle control; higher = more cells (less toxicity).
For assay [2], the system named is hAMSC donor 2. The description is as above.
The subject of assay [3] is hAMSC donor 1. The experiment in a line: transgenic luciferase activity (RLU/mg protein) fold change vs vehicle control (ratio); higher = more transgene expression.
The subject of assay [4] is hAMSC donor 2. The assay is described as above.
Assay [5] has as its system hAMSC donor 1. The experiment in a line: transfection efficiency (EGFP+ cells / Hoechst count) fold change vs vehicle control (ratio); hAMSC are human adipose-derived mesenchymal stem cells given an EGFP-luciferase plasmid by lipofection; higher = enhanced transfection.
Assay [6] concerns hAMSC donor 2. The description is as above.
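Throughout, for Hoechst total cell count ratio vs vehicle control: compound added 30 min before Lipofectamine 3000 lipoplex delivery, triplicate-well means expressed against DMSO vehicle control wells of the same 96-well plate.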
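Throughout, for transfection efficiency (EGFP+ cells / Hoechst count) fold change vs vehicle control: compounds added 30 min before Lipofectamine 3000 lipoplex transfection, triplicate means relative to DMSO vehicle wells on the same plate, luciferase RLU normalized to BCA total protein.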
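Throughout, for transgenic luciferase activity (RLU/mg protein) fold change vs vehicle control: compounds in DMSO added 30 min before Lipofectamine 3000 transfection of pEGFP-Luc in 96-well plates, values are means of triplicate wells over DMSO vehicle wells on the same plate.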

Consider `COC(=O)Nc1nc2cc(C(=O)c3ccc(F)cc3)ccc2[nH]1` [Flubendazole], for which the results for the “Hoechst total cell count ratio” value in assay [1] and in assay [2] were 0.878 ± 0.14 and 0.788 ± 0.012, respectively. Besides, the results for the transgenic luciferase activity in assay [3] and in assay [4] were 0.789 ± 0.68 and 0.526 ± 0.35, respectively. Further, the transfection efficiency in assay [5] was determined as 1.28 ± 0.097; in assay [6], 0.673 ± 0.16.

Take `Nc1nc(=O)[nH]cc1F` [Flucytosine]: the “Hoechst total cell count ratio” value in assay [1] turned out to be 1.48 ± 0.12; in assay [2] it was 1.29 ± 0.29. Also, the transgenic luciferase activity in assay [3] came out at 1.32 ± 0.69; in assay [4], 0.782 ± 0.15. The transfection efficiency in assay [5] was found to be 0.774 ± 0.11; in assay [6], 1.08 ± 0.23.

With `CCCN1CCCC[C@H]1C(=O)Nc1c(C)cccc1C` [Ropivacaine hydrochloride], the “Hoechst total cell count ratio” value in assay [1] came to 1.19 ± 0.082; in assay [2], 1.27 ± 0.27. Further, the transgenic luciferase activity was determined as 1.87 ± 1.5 in assay [3] and 0.69 ± 0.18 in assay [4]. In addition, the transfection efficiency in assay [5] stood at 0.865 ± 0.23; in assay [6], 1 ± 0.26.

For the molecule `NS(=O)(=O)Cc1noc2ccccc12` [Zonisamide], the “Hoechst total cell count ratio” value in assay [1] came to 1.11 ± 0.035; in assay [2], 1.11 ± 0.3. The transgenic luciferase activity turned out to be 1.18 ± 0.06 in assay [3] and 0.904 ± 0.42 in assay [4]. For the same molecule, the transfection efficiency was 1.84 ± 0.32 in assay [5] and 1.17 ± 0.072 in assay [6].

Consider `O=C1[C@H](CC[C@H](O)c2ccc(F)cc2)[C@@H](c2ccc(O)cc2)N1c1ccc(F)cc1` [Ezetimibe], for which the “Hoechst total cell count ratio” value was found to be 1.12 ± 0.15 in assay [1] and 0.473 ± 0.18 in assay [2]. Moreover, the transgenic luciferase activity in assay [3] turned out to be 0.552 ± 0.14; in assay [4] it was 1.28 ± 0.17. For the same molecule, the transfection efficiency in assay [5] worked out at 0.399 ± 0.13; in assay [6], 1.43 ± 0.33.

In the case of `CCOc1ccc2ccccc2c1C(=O)N[C@@H]1C(=O)N2[C@@H]1SC(C)(C)[C@@H]2C(=O)O` [Nafcillin sodium], the results for the “Hoechst total cell count ratio” value in assay [1] and in assay [2] were 1.02 ± 0.11 and 0.916 ± 0.13, respectively. The figures for the transgenic luciferase activity in assay [3] and in assay [4] were 4.07 ± 3.8 and 3.14 ± 1.1, respectively. The transfection efficiency in assay [5] worked out at 1.77 ± 0.16; in assay [6], 1.65 ± 0.16.

Turning to `COc1cc2nc(N(C)CCCNC(=O)C3CCCO3)nc(N)c2cc1OC` (stereo not drawn) [Alfuzosin], the “Hoechst total cell count ratio” value in assay [1] was found to be 1.46 ± 0.12; in assay [2] it was 1.53 ± 0.12. The transgenic luciferase activity in assay [3] was found to be 0.682 ± 0.38; in assay [4], 0.776 ± 0.16. Moreover, the transfection efficiency in assay [5] came to 1.22 ± 0.29; in assay [6] it was 0.717 ± 0.083.

Take `O=c1[nH]cnc2c1ncn2[C@H]1CC[C@@H](CO)O1` [Didanosine]: the entries for the “Hoechst total cell count ratio” value in assay [1] and in assay [2] were 1.48 ± 0.33 and 0.976 ± 0.032, respectively. Moreover, the results for the transgenic luciferase activity in assay [3] and in assay [4] were 0.693 ± 0.26 and 0.775 ± 0.12, respectively. Also, the transfection efficiency in assay [5] came out at 1.09 ± 0.53; in assay [6], 1.34 ± 0.23.

`OCCN1CCN(CCCN2c3ccccc3Sc3ccc(Cl)cc32)CC1` [Perphenazine]: the entries for the “Hoechst total cell count ratio” value in assay [1] and in assay [2] were 0.124 ± 0.039 and 0.305 ± 0.15, respectively. The values for the transgenic luciferase activity in assay [3] and in assay [4] were 0.00393 ± 0.0028 and 0.000664 ± 0.00015, respectively. Besides, the transfection efficiency was 0.852 ± 0.47 in assay [5] and 0.0358 ± 0.062 in assay [6].

`CCN(CC)CC(=O)Nc1c(C)cccc1C` [Lidocaine]: the “Hoechst total cell count ratio” value in assay [1] was found to be 1.05 ± 0.1; in assay [2] it was 1.25 ± 0.14. Further, the transgenic luciferase activity worked out at 0.72 ± 0.37 in assay [3] and 0.551 ± 0.1 in assay [4]. In addition, the values for the transfection efficiency in assay [5] and in assay [6] were 0.745 ± 0.1 and 0.839 ± 0.15, respectively.

For `CN(C)CCC=C1c2ccccc2COc2ccccc21` [Doxepin hydrochloride], the “Hoechst total cell count ratio” value worked out at 0.834 ± 0.01 in assay [1] and 1.07 ± 0.2 in assay [2]. Further, the transgenic luciferase activity in assay [3] worked out at 0.601 ± 0.18; in assay [4], 0.514 ± 0.054. Moreover, the values for the transfection efficiency in assay [5] and in assay [6] were 1.57 ± 0.35 and 0.867 ± 0.17, respectively.

In the case of `Cc1cnc(NC(=O)C2=C(O)c3ccccc3S(=O)(=O)N2C)s1` [Meloxicam], the figures for the “Hoechst total cell count ratio” value in assay [1] and in assay [2] were 1.12 ± 0.04 and 1.5 ± 0.028, respectively. Moreover, the values for the transgenic luciferase activity in assay [3] and in assay [4] were 0.375 ± 0.13 and 0.829 ± 0.17, respectively. The values for the transfection efficiency in assay [5] and in assay [6] were 0.952 ± 0.22 and 0.745 ± 0.12, respectively.

On to `Clc1ccc(COC(Cn2ccnc2)c2ccc(Cl)cc2Cl)cc1` (stereo not drawn) [Econazole nitrate], for which the “Hoechst total cell count ratio” value in assay [1] was 0.203 ± 0.13; in assay [2], 0.122 ± 0.029. Also, the transgenic luciferase activity in assay [3] stood at 0.00838 ± 0.0016; in assay [4], 0.00142 ± 0.0011. For the same molecule, the results for the transfection efficiency in assay [5] and in assay [6] were 2.24 ± 0.28 and 0.112 ± 0.19, respectively.

Regarding `CNC(=C[N+](=O)[O-])NCCSCc1ccc(CN(C)C)o1` [Ranitidine hydrochloride], the figures for the “Hoechst total cell count ratio” value in assay [1] and in assay [2] were 1.24 ± 0.19 and 1.13 ± 0.19, respectively. The transgenic luciferase activity in assay [3] came to 0.697 ± 0.075. The results for the transfection efficiency in assay [5] and in assay [6] were 1.07 ± 0.088 and 1.31 ± 0.063, respectively.

Take `NC1CCN(c2cccc(Cl)n2)CC1`: the “Hoechst total cell count ratio” value turned out to be 1.75 ± 0.29 in assay [1] and 1.2 ± 0.41 in assay [2]. Also, the transgenic luciferase activity in assay [3] was 0.443 ± 0.32. Moreover, the transfection efficiency in assay [5] came out at 0.935 ± 0.14; in assay [6], 0.927 ± 0.17.

Take `CCN(CC)CCNC(=O)c1cc(Cl)c(N)cc1OC` [Metoclopramide hydrochloride]: the “Hoechst total cell count ratio” value in assay [1] worked out at 1.38 ± 0.076; in assay [2] it was 1.3 ± 0.32. In addition, the transgenic luciferase activity in assay [3] stood at 0.537 ± 0.3. The transfection efficiency was 1.1 ± 0.28 in assay [5] and 1.12 ± 0.12 in assay [6].

As to `CC(C)[C@H](N)C(=O)OCCOCn1cnc2c(=O)nc(N)[nH]c21` [Valaciclovir hydrochloride], the “Hoechst total cell count ratio” value in assay [1] was 1.34 ± 0.3; in assay [2], 1.04 ± 0.047. Besides, the transgenic luciferase activity in assay [3] amounted to 0.25 ± 0.088. For the same molecule, the transfection efficiency in assay [5] amounted to 0.947 ± 0.16; in assay [6], 1.14 ± 0.23.

Turning to `CN(C)CCOc1ccc(/C(=C(/CCCl)c2ccccc2)c2ccccc2)cc1` [Toremifene citrate], the “Hoechst total cell count ratio” value in assay [1] is 0.124 ± 0.03; in assay [2] it was 0.0197 ± 0.005. The transgenic luciferase activity in assay [3] was found to be 0.000903 ± 0.00063. The values for the transfection efficiency in assay [5] and in assay [6] were 0.862 ± 0.11 and 1.62 ± 2, respectively.

Turning to `CN(C)[C@@H]1C(O)=C(C(N)=O)C(=O)[C@@]2(O)C(O)=C3C(=O)c4c(O)cccc4[C@@](C)(O)[C@H]3[C@H](O)[C@@H]12` [Oxytetracycline hydrochloride], the results for the “Hoechst total cell count ratio” value in assay [1] and in assay [2] were 1.37 ± 0.064 and 1.2 ± 0.28, respectively. Moreover, in assay [3], the transgenic luciferase activity is 0.537 ± 0.1. The transfection efficiency in assay [5] worked out at 0.666 ± 0.051; in assay [6], 0.536 ± 0.11.

For the molecule `c1ccc2[nH]c(-c3cscn3)nc2c1` [Thiabendazole], the “Hoechst total cell count ratio” value stood at 1.09 ± 0.057 in assay [1] and 1.05 ± 0.22 in assay [2]. Besides, the transgenic luciferase activity amounted to 2.28 ± 0.23 in assay [3] and 1.18 ± 0.45 in assay [4]. Besides, the transfection efficiency in assay [5] stood at 1.65 ± 0.49; in assay [6], 1.29 ± 0.078.

Take `c1cnc(N2CCN(Cc3ccc4c(c3)OCO4)CC2)nc1` [Piribedil hydrochloride]: the “Hoechst total cell count ratio” value in assay [1] was 1.54 ± 0.2; in assay [2], 1.29 ± 0.074. Moreover, the transgenic luciferase activity in assay [3] was 1.78 ± 0.52. The transfection efficiency came to 1.02 ± 0.13 in assay [5] and 1.03 ± 0.1 in assay [6].

Take `CN1[C@@H]2CC[C@H]1C[C@@H](OC(=O)c1c[nH]c3ccccc13)C2` [Tropisetron hydrochloride]: the “Hoechst total cell count ratio” value in assay [1] stood at 1.42 ± 0.18; in assay [2] it was 1.06 ± 0.14. Besides, the transgenic luciferase activity in assay [3] came to 0.231 ± 0.083. The transfection efficiency in assay [5] was found to be 0.854 ± 0.11; in assay [6] it was 0.772 ± 0.077.

Turning to `Cc1cccc(CCN2CCC(C(=O)c3ccc(NS(C)(=O)=O)cc3)CC2)n1` [E-4031 dihydrochloride], the figures for the transgenic luciferase activity in assay [3] and in assay [4] were 1.02 ± 0.14 and 0.721 ± 0.19, respectively. Further, the transfection efficiency in assay [5] was 1.29 ± 0.038; in assay [6], 0.724 ± 0.068.
